Data from PubChem BioAssay AID1347417 (National Center for Advancing Translational Sciences (NCATS), 2020).
Hit rate of the full screen: of about 120,000 compounds, about 5,300 (4.4%) were called active. The shares of active, inactive and inconclusive entries below differ from those in the screen. The call rests on the fitted dose curve; in most records, active means well fitted inhibition curve with a large enough effect; inconclusive means small, poorly fitted or top-dose-only effect; inactive means no such curve, though single readings can be large or run the other way. Potencies beside an inconclusive call are fits to weak or partial responses and may not hold up.
Potency means the concentration at half of the fitted maximal effect; tags describe the fitted curve by direction and shape.

Experiment: qHTS Primary assay for Inhibitors of Plasmodium falciparum Dd2 growth in vitro; further: nearly all actives have a fitted effect of over 65% in size;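 on activity, negative = inhibition: plate controls were DMSO vehicle for no effect and reference drug for full effect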
Settings: P. falciparum Dd2 growth, SYBR Green, 72 h; activity, negative = inhibition: at 28.9 µM (top of the series) unless noted; series mostly up to 28.9 µM
Method in brief: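 Infected erythrocytes (Dd2, 0.3% parasitemia, 2.5% hematocrit final) are added to compound in RPMI-1640/Albumax II medium, grown 72 h at 37C in low oxygen, then lysed with saponin/Triton-X containing SYBR Green and read by fluorescence.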
With Cc1ccc(-n2nc3c(=O)n(C(C)C(=O)NCc4ccc(OC(C)C)cc4)nc(C)c3c2C)cc1 (stereo unspecified) the Potency was inconclusive: 11.2 µM [inhibitor, single point].
For Cc1cc2cc(-c3c(C)noc3C)nc(Nc3cccc(F)c3)c2o1, the Potency was inconclusive: 31.6 µM [inhibitor, single point].
With CCOc1ccc(C(=O)N[C@@H]2CN(c3ncccn3)C[C@H]2CO)cc1 the “activity, negative = inhibition” value was inactive: -5.67%.
For Cc1cc(C)cc(-n2c(SCC(=O)Nc3ccccc3)nc3c(oc4ccccc43)c2=O)c1, the Potency was inconclusive: 17.8 µM [inhibitor, single point].
In the case of O=C(COc1ccccc1)N[C@H]1CO[C@H]2[C@@H]1OC[C@@H]2n1nnnc1Oc1ccc2c(c1)OCO2, the Potency is reported as inconclusive: 2 µM [inhibitor, full curve].
With COc1ccc(CC(=O)N2CCC(Cc3nc(-c4ccccc4)no3)CC2)cc1 the “activity, negative = inhibition” value was inactive: -17.7%.
In the case of Cc1cccnc1CN(C(=O)c1cc(COc2ccccc2)[nH]n1)C(C)C, the Potency is reported as inconclusive: 0.199 µM [inhibitor, partial curve, poor fit].
With CCOc1ccc(NC(=O)N2CCc3cc(OC)c(OC)cc3C2CNC(=O)NC(C)(C)C)cc1 (stereo unspecified) the Potency was inconclusive: 3.98 µM [inhibitor, single point].
With O=C(NC[C@H]1OC[C@@H](NC2CCOCC2)[C@@H]1O)N1CCOCC1 the “activity, negative = inhibition” value was inactive: 14.5% [at 44.1 µM].
In the case of O=C(COc1ccccc1)N1C[C@@H]2OCC(=O)N(Cc3ccc(F)cc3)[C@@H]2C1, the Potency is reported as inconclusive: 7.08 µM [inhibitor, partial curve, poor fit].
With COc1cccc(CNC(=O)N2CCCC(Cn3c(C)nc4cccnc43)C2)c1 (stereo unspecified) the “activity, negative = inhibition” value was inactive: -22.8%.
In the case of O=C(Cn1c(SCc2ccc(F)cc2)nc2cccnc21)Nc1ccccc1F, the Potency is reported as inconclusive: 11.2 µM [inhibitor, single point].
In the case of CC(=O)c1cccc(NC(=O)c2sc(-n3nc(C)c(Cc4ccccc4)c3C)nc2C)c1, the Potency is reported as inconclusive: 10 µM [inhibitor, single point].
In the case of CCCCN(C)CC(O)Cn1cc(/C=C/C(=O)c2ccc(Br)cc2)c2ccccc21 (stereo unspecified), the Potency is reported as inconclusive: 1 µM [inhibitor, single point].
With Cc1ccc(CNC(=O)N2CCC(N3C(=O)C4(CCCCC4)C3c3ccncc3)CC2)cc1 (stereo unspecified) the Potency was active: 11.2 µM.
In the case of COCc1nc2ccccc2n1Cc1ccc(C(C)(C)C)cc1, the Potency is reported as inconclusive: 17.8 µM [inhibitor, single point].
For CC(C)N1CCN(C(=O)c2cc3cn(C4CC4)cc3s2)CC1, the Potency was inconclusive: 20 µM [inhibitor, single point].
With CC(C)CCN1CCC2(CC1)OCCN(CCc1ccccc1)C2=O the “outcome” value was “inactive [at 44.1 µM]”.
In the case of O=C1CC2(CCN(CC3CCCCC3)CC2)Oc2ccccc2N1, the Potency is reported as inconclusive: 5.62 µM [inhibitor, partial curve, poor fit].
For O=C(CCCCn1c(=O)c2ccccc2n(Cc2cccc(F)c2)c1=O)NCCc1ccccc1, the Potency was inconclusive: 5.01 µM [inhibitor, partial curve, poor fit].
With O=C(NC1CCN(Cc2ccccc2)CC1)c1ccc(Cn2c(=O)c3ccccc3n(Cc3ccc(Cl)cc3)c2=O)cc1 the Potency was active: 5.01 µM.
In the case of O=C(Nc1sc2c(c1C(=O)NCc1ccco1)CCCC2)c1cc(=O)c2cc(Cl)ccc2o1, the “activity, negative = inhibition” value is reported as inactive: 19.4%.
With Cc1ccc(-n2c(C3CCN(C(=O)COc4ccc(Cl)cc4)CC3)n[nH]c2=O)cc1 the Potency was active: 0.891 µM.
In the case of O=C(NCCc1noc(C2CCCO2)n1)c1cnc(-c2cccnc2)nc1 (stereo unspecified), the “activity, negative = inhibition” value is reported as inactive: -5.11%.
With N#Cc1ccc(CN2CCCC3(C2)NC(=O)c2ccccc2O3)cc1 (stereo unspecified) the Potency was inconclusive: 11.2 µM [inhibitor, partial curve, poor fit].
With O=C1c2c(nc(COc3cc(F)cc(F)c3)n2Cc2ccccc2)NCCN1Cc1ccccc1F the Potency was inconclusive: 15.8 µM [inhibitor, single point].
With O=C(c1ccn(C(F)F)n1)N1CCCC(c2ccccc2)(c2ccccc2)C1 the Potency was inconclusive: 11.2 µM [inhibitor, partial curve, poor fit].
With Cc1ccc(NC(=O)N2CCC(CCNC(=O)c3ccsc3)CC2)cc1 the Potency was inconclusive: 8.91 µM [inhibitor, partial curve].
For CCCc1cncnc1N1CCN(C2CCN(Cc3ccco3)CC2)CC1, the “activity, negative = inhibition” value was inactive: -7.67%.
With CCOc1ccccc1CN1CCC2(CCN([S+](=O)([O-])c3ccc(C)cc3)CC2)Oc2ccccc21 the Potency was active: 3.98 µM.
In the case of Cc1ccc(C(=O)N2CCC(c3n[nH]c(=O)n3Cc3ccc(F)cc3)CC2)c(C)c1, the Potency is reported as inconclusive: 8.91 µM [inhibitor, single point].
For CCC(=O)N1Cc2ccccc2CC2(CCCCN2CC2CCOCC2)C1 (stereo unspecified), the Potency was inconclusive: 15.8 µM [inhibitor, single point].
With O=C(c1ccnnc1)N1CC(F)(F)C[C@H]1c1nc(C2CC2)no1 the “activity, negative = inhibition” value was inactive: 28.6%.
For COC(=O)c1c(NC(=O)c2ccc(OC)cc2OC)sc2c1CCCCC2, the “activity, negative = inhibition” value was inactive: 32.7%.
With CC(O)c1cc2n(n1)CCN(C1CCN(C(=O)c3cnccn3)CC1)C2 (stereo unspecified) the “activity, negative = inhibition” value was inactive: -5.03%.
For CCn1c(=O)c2cc(C(=O)NCc3cc(OC)ccc3OC)sc2c2ccccc21, the Potency was inconclusive: 11.2 µM [inhibitor, single point].
For c1ccc(OCc2cc(CC3(NCc4cccc5c4OCO5)COC3)no2)cc1, the “outcome” value was “inactive [at 44.1 µM]”.
For CN1CC2CN(C(=O)NCc3ccc(F)cc3)CC(C1)O2, the Potency was inconclusive: 7.94 µM [inhibitor, single point].
For O=C(c1cccc2c1OCCO2)N1CCCn2nc(CO)cc2C1, the “activity, negative = inhibition” value was inactive: -9.58%.
For COc1cccc(N2C(=O)NC(=NC3CCCCC3)C23CCN(C(=O)OCc2ccccc2)C3)c1 (stereo unspecified), the “outcome” value was “inactive”.
With COc1cc(Nc2nc(-c3cccc(OC)c3OC)no2)cc(OC)c1OC the Potency was inconclusive: 12.6 µM [inhibitor, partial curve].
For CC(C)(C)OC(=O)N1CCC(c2c(C(=O)N3CCN(c4ccccn4)CC3)cnn2-c2ccc(F)cc2F)CC1, the Potency was inconclusive: 10 µM [inhibitor, single point].
With COc1ccc2[nH]c3c(c2c1)CCN(C(=O)CCC1CCCC1)C3c1ccc(F)cc1 (stereo unspecified) the Potency was inconclusive: 6.31 µM [inhibitor, partial curve, poor fit].
In the case of COc1ccc(NC(=O)O[C@@H]2CO[C@H]3[C@@H]2OC[C@@H]3NC(=S)Nc2ccc(Cl)cc2)cc1, the Potency is reported as inconclusive: 12.6 µM [inhibitor, partial curve, poor fit].
In the case of Cc1cccc(Cn2c(-c3ccccc3)nc3ccccc32)c1, the Potency is reported as inconclusive: 17.8 µM [inhibitor, single point].
For O=C1Cc2cc(S(=O)(=O)N3CCN(c4cccc(Cl)c4)CC3)ccc2N1, the Potency was inconclusive: 0.1 µM [inhibitor, full curve, poor fit].
For CC1Oc2ccc(NC(=O)Cc3ccc(F)cc3)cc2CN(Cc2ccc(Cl)cc2)C1=O (stereo unspecified), the Potency was active: 10 µM.
For CCn1c(C(=O)NCCc2ccc(S(N)(=O)=O)cc2)cc2sc(Cl)cc21, the “activity, negative = inhibition” value was inactive: -18%.
With CCNC(=O)N1CCC(Cc2nncn2CC)C1 (stereo unspecified) the “activity, negative = inhibition” value was inactive: -8.8%.
With COc1ccccc1CC(=O)N1CCC2(CC1)N=C(c1ccc(Cl)cc1)NO2 the “activity, negative = inhibition” value was inactive: -35.5%.
In the case of COc1cc(-c2nc3sccn3c2Nc2c(C)cccc2C)ccc1O, the Potency is reported as inconclusive: 11.2 µM [inhibitor, partial curve, poor fit].
For CC(=O)Nc1ccc(CN2C(=O)OC3(CCN(C(=O)C4CCC4)CC3)C2(C)c2ccccc2)cc1 (stereo unspecified), the Potency was inconclusive: 1.12 µM [inhibitor, full curve, poor fit].
With CCN1CCN(C2(C(=O)N3CCC(COC)C3)Cc3ccccc3C2)CC1 (stereo unspecified) the Potency was inconclusive: 12.6 µM [inhibitor, single point].
In the case of Cc1cc(C)nc(-n2nc(C)c3c2N(Cc2ccccc2F)C(=O)CC3c2ccc(Cl)cc2)n1 (stereo unspecified), the Potency is reported as inconclusive: 10 µM [inhibitor, single point].
For CCN1CCC2(Cc3ccccc3CN([S+](=O)([O-])c3ccccc3)C2)C1 (stereo unspecified), the Potency was inconclusive: 10 µM [inhibitor, partial curve, poor fit].
In the case of COc1ccccc1CNC(=O)Cc1csc2nc(-c3ccc(F)cc3)cn12, the Potency is reported as inconclusive: 7.94 µM [inhibitor, partial curve].
For O=S(=O)(c1ccc(Cl)cc1)c1nc(-c2cccs2)oc1N1CCCCC1, the Potency was inconclusive: 10 µM [inhibitor, single point].
With CC(C)(C)c1cc(C[C@H]2CNCC[C@H]2CC(=O)Nc2nccs2)no1 the Potency was inconclusive: 3.98 µM [inhibitor, full curve, poor fit].
With CCOC(=O)c1cnc2c(ccc3ccccc32)c1Nc1ccc(C(C)=O)cc1 the Potency was active: 5.01 µM.
For COc1cccc(CSc2nc3ccncc3n2CC(=O)Nc2ccc(OC)c(OC)c2OC)c1, the “activity, negative = inhibition” value was inactive: -9.92%.
With CCC1CN(C(=O)N2CCC(C(=O)NCCc3ccc(OC)cc3OC)CC2)c2cc(C)ccc2O1 (stereo unspecified) the Potency was active: 5.62 µM.
With Cc1cccc(OCc2nc(CC(=O)Nc3ccc(Cl)cc3)cs2)c1 the Potency was inconclusive: 10 µM [inhibitor, partial curve, poor fit].
In the case of Cc1cccc(C)c1-n1ncc(C(=O)NCCCN2CCC(C)CC2)c1C1CCN(C(=O)OC(C)(C)C)CC1, the Potency is reported as inconclusive: 1.26 µM [inhibitor, partial curve].
In the case of CC(C)CN1C(=O)c2ccccc2C(C(=O)NCc2ccco2)C12CCCC2 (stereo unspecified), the “activity, negative = inhibition” value is reported as inactive: -20.6%.
With Cc1ccc(C(=O)N2CCc3nc(C(C)C)nc(-c4ccc(O)cc4)c3CC2)cc1 the Potency was inconclusive: 1.41 µM [inhibitor, partial curve, poor fit].
In the case of CC(C)CC(=O)N1CCCN(S(C)(=O)=O)c2ccccc21, the “activity, negative = inhibition” value is reported as inactive: -1.09%.
